Test results published in the RNAGym collection of RNA variant scans (doi:10.1101/gad.245936.114).
Variants at the floor of the assay are shown more often than the library holds them.

B1: tRNA (parent)
chain: CUCUCGGUAGCCAAGUUGGUUUAAGGCGCAAGACUUUAAUUUAUCACUACGAAAUCUUGAGAUCGGGCGUUCGACUCGCCCCCGGGAGAUUUUUUCCUCGAGCAA

Variants of: B1
Assay: nonsense suppression (GFP-seq) (ratio to wild type); higher = more function; SUP4oc tRNA, yeast GFP reporter sort-seq
Summary of the method: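 Yeast were grown in raffinose/galactose medium with 80 mg/L adenine, each strain bearing a genome-integrated ochre-suppressor tRNA variant from a ~3% random-mutation library, a galactose-driven GFP ochre reporter, and RFP. After sorting into GFP/RFP bins, every bin was sequenced on an Illumina platform at phred ≥30. The GFPSEQ value, a measure of nonsense suppression, is the weighted bin median GFP/RFP relative to the unmutated parent tRNA, using each variant's estimated cell share per bin as the weight. Only variants with ≥100 reads and ≥30 cells were included.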

Variant	nonsense suppression
U8G G25U	≤ 0.026
U8G G25U A31G A33G	≤ 0.026
U8G G25U A54U U70G G73C	≤ 0.026
U8G G26A G65C C82A	≤ 0.026
U8G G28A A31G U35G	≤ 0.026
U8G G28C C81A	≤ 0.026
U8G G28U	≤ 0.026
U8G G32A U70A C79U	≤ 0.026
U8G G59A C77G	≤ 0.026
U8G G61C A89G	≤ 0.026
U8G G61C C81A G84C	≤ 0.026
U8G G61U C83A	≤ 0.026
U8G G61U U71C	≤ 0.026
U8G G66C G73A	≤ 0.026
U8G G67U	≤ 0.026
U8G G67U C68G C77G C79U	≤ 0.026
U8G G69A G78C	≤ 0.026
U8G G69C	≤ 0.026
U8G G88A	0.228
U8G U16A G25A	≤ 0.026
U8G U17A A74G C83G G85C G86U	≤ 0.026
U8G U17C A33G G66U C77A G88C	≤ 0.026
U8G U17G G19A A54C	≤ 0.026
U8G U20C	≤ 0.026

Variant	nonsense suppression
U8G U20G C82G	≤ 0.026
U8G U21C A31G U35C C80A	≤ 0.026
U8G U22G C27U	≤ 0.026
U8G U22G C77G	≤ 0.026
U8G U22G U35A	≤ 0.026
U8G U57C	≤ 0.026
U8G U57C A60G G69C	≤ 0.026
U8G U57G	≤ 0.026
U8G U58A	≤ 0.026
U8G U58G	≤ 0.026
U8G U63A	≤ 0.026
U8G U63C U70A	≤ 0.026
U8G U76C	≤ 0.026
A9C	1.05
A9C A13G	0.0462
A9C A13G G26A G65C	≤ 0.026
A9C A13G U55A G73U	≤ 0.026
A9C A14C A62G G69A	≤ 0.026
A9C A14C G84C	≤ 0.026
A9C A23C	≤ 0.026
A9C A23U	≤ 0.026
A9C A23U G73A G78A	≤ 0.026
A9C A23U U57G	≤ 0.026
A9C A24G A30C G88U	≤ 0.026

Variant	nonsense suppression
A9C A24G C27U G66C	≤ 0.026
A9C A30C A33G A62C	≤ 0.026
A9C A30C U63G G84C	≤ 0.026
A9C A30G	0.171
A9C A30G A60C	≤ 0.026
A9C A30G C64G G69U	≤ 0.026
A9C A30U C56G A62C	≤ 0.026
A9C A30U G67U	≤ 0.026
A9C A33G G88U	≤ 0.026
A9C A60C G73A	≤ 0.026
A9C A60G G73U	≤ 0.026
A9C A62G G73A	≤ 0.026
A9C A87C A89C	≤ 0.026
A9C A89G	≤ 0.026
A9C A89U	≤ 0.026
A9C C11A G26C	≤ 0.026
A9C C11G A33U A60C G85C	≤ 0.026
A9C C11G G32U G69U	≤ 0.026
A9C C11U G69A	≤ 0.026
A9C C12A G86A	≤ 0.026
A9C C12U	0.186
A9C C12U C82A	≤ 0.026
A9C C12U G26U C56G	≤ 0.026
A9C C12U U63C	≤ 0.026

Variant	nonsense suppression
A9C C27A	≤ 0.026
A9C C27A C82A	≤ 0.026
A9C C27G G78U	≤ 0.026
A9C C27G U35G A62C U70C	≤ 0.026
A9C C27U G32C U35A C68A G78C	≤ 0.026
A9C C34G	≤ 0.026
A9C C34U U58G G78C	≤ 0.026
A9C C64U U70C	≤ 0.026
A9C C68A C82U A87G	≤ 0.026
A9C C68U	0.765
A9C C72G G78U	≤ 0.026
A9C C77G A89U	≤ 0.026
A9C C77U	≤ 0.026
A9C C82G	≤ 0.026
A9C G10A U20A U63G	≤ 0.026
A9C G10C	≤ 0.026
A9C G10C A62C C80A	≤ 0.026
A9C G10C C29G U76G	≤ 0.026
A9C G10U C12U U35C	≤ 0.026
A9C G15A C29G G69C	≤ 0.026
A9C G15C	≤ 0.026
A9C G15U	≤ 0.026
A9C G15U G28U C79A	≤ 0.026
A9C G18A A31C A54C A62U G69C G88C	≤ 0.026

Variant	nonsense suppression
A9C G19C A30C A33G U57G	≤ 0.026
A9C G19U A23C	≤ 0.026
A9C G19U A23G G32U C34G G65C G67C G78U C81A	≤ 0.026
A9C G19U C56U	≤ 0.026
A9C G19U C81U	≤ 0.026
A9C G19U U58A G67U	≤ 0.026
A9C G25A G26A G88U	≤ 0.026
A9C G25C	≤ 0.026
A9C G25C A31U	≤ 0.026
A9C G25C C72G	≤ 0.026
A9C G25U	≤ 0.026
A9C G26U	≤ 0.026
A9C G26U A31C G84U	≤ 0.026
A9C G28U G67C	≤ 0.026
A9C G32C G88U	≤ 0.026
A9C G59A C82U	≤ 0.026
A9C G59A G66C A74G G85U G86U	≤ 0.026
A9C G59A U63C	≤ 0.026
A9C G61C	0.791
A9C G61C C68A G88U	≤ 0.026
A9C G65A	≤ 0.026
A9C G65C	≤ 0.026
A9C G66A A89C	≤ 0.026
A9C G85U	0.04

Variant	nonsense suppression
A9C G86A	≤ 0.026
A9C G86A A89C	≤ 0.026
A9C U16G A30G U58G	≤ 0.026
A9C U16G G88A	≤ 0.026
A9C U17A A30U G67U	≤ 0.026
A9C U17A G59U C64A	≤ 0.026
A9C U17G	0.595
A9C U20A	0.183
A9C U20G G85U	≤ 0.026
A9C U21A A24G C77G	≤ 0.026
A9C U21A A24G C77U	≤ 0.026
A9C U21C A30C	≤ 0.026
A9C U21G A33G	≤ 0.026
A9C U21G A89G	≤ 0.026
A9C U22G U35A C56U	≤ 0.026
A9C U35G G84A G85A	≤ 0.026
A9C U55C G59A G78U	≤ 0.026
A9C U57C C82G	≤ 0.026
A9C U57G	≤ 0.026
A9C U58C A60U A87C	≤ 0.026
A9C U58G G61U	≤ 0.026
A9C U63G	0.0362
A9C U71A	≤ 0.026
A9C U71A U76C	≤ 0.026

Variant	nonsense suppression
A9C U76A	≤ 0.026
A9G	0.45
A9G A13C	0.183
A9G A13C C34G U63A C81G G84A G86U	≤ 0.026
A9G A13U A74C	≤ 0.026
A9G A14C A23G C29G	≤ 0.026
A9G A14C A31U	≤ 0.026
A9G A14G U21C C68G G73A C83U	≤ 0.026
A9G A23G U70G A89G	≤ 0.026
A9G A23U G73C	≤ 0.026
A9G A24G A54U U71G	≤ 0.026
A9G A24G C56U	≤ 0.026
A9G A30C C34G G88A	≤ 0.026
A9G A30C G66A U70G C75G U76A	≤ 0.026
A9G A30G G61C C64A G67A	≤ 0.026
A9G A30U	0.163
A9G A30U U58A	0.23
A9G A33C A74U C82U	≤ 0.026
A9G A33G C79U	≤ 0.026
A9G A33U U35G U71C A89G	≤ 0.026
A9G A54U	0.196
A9G A54U U70C	≤ 0.026
A9G A60G U71C	≤ 0.026
